In the supplement of paper PMC4967469:
IC50 is the fitted dose that halves viability relative to control wells, and lower means more sensitive; a limit (>, <) means that the fit lies beyond the doses tested. AUC, from the same fit, is the share of area under the viability curve across the 256-fold dose range; it is 1 without any effect and falls as sensitivity rises. For some of these results: A top dose marked as inferred comes from the curve model; the source does not state it.

Columns and labels:
Assay in all cases: Viability of human cancer cell lines after 72 h of drug (GDSC screen)
Bryostatin 1 = compound: CCC/C=C/C=C/C(=O)O[C@H]1/C(=C/C(=O)OC)C[C@H]2C[C@H]([C@@H](C)O)OC(=O)C[C@H](O)C[C@@H]3C[C@H](OC(C)=O)C(C)(C)[C@](O)(C[C@@H]4C/C(=C/C(=O)OC)C[C@H](/C=C/C(C)(C)[C@]1(O)O2)O4)O3 [Bryostatin 1]; settings: top dose 0.008 µM; top dose inferred
Protocol: (§1)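 Human cancer cell lines in 384-well plates, medium with 10% serum, drug for 72 h over a 256-fold dose range (nine 2-fold or five 4-fold steps up to the top dose). Adherent lines were fixed and stained with the nucleic acid dye Syto60, suspension lines read with resazurin; signal relative to control wells, capped at 0 and 100%. One two-parameter sigmoid per drug and line, fitted in a mixed model over all curves with the slope shared within a line.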

GW-2580 = compound: COc1ccc(COc2ccc(Cc3cnc(N)nc3N)cc2OC)cc1 [GW-2580]; settings: top dose 20 µM; top dose inferred
Protocol: as §1

SGC0946 = compound: CC(C)N(CCCNC(=O)Nc1ccc(C(C)(C)C)cc1)C[C@H]1O[C@@H](n2cc(Br)c3c(N)ncnc32)[C@H](O)[C@@H]1O [SGC0946]; settings: top dose 0.5 µM; top dose inferred
Protocol: as §1

VX-680 = compound: Cc1cc(Nc2cc(N3CCN(C)CC3)nc(Sc3ccc(NC(=O)C4CC4)cc3)n2)n[nH]1 [VX-680]; settings: top dose 2 µM
Protocol: as §1

Lenalidomide = compound: Nc1cccc2c1CN(C1CCC(=O)NC1=O)C2=O [Lenalidomide]; settings: top dose 5 µM; top dose inferred
Protocol: as §1

Cell Line | AUC (Bryostatin 1) | IC50 (Bryostatin 1) [nM] | AUC (GW-2580) | IC50 (GW-2580) [nM] | AUC (SGC0946) | IC50 (SGC0946) [nM] | AUC (VX-680) | IC50 (VX-680) [nM] | AUC (Lenalidomide) | IC50 (Lenalidomide) [nM]
8-MG-BA (glioma, adherent) | 0.986 | > 8 | 0.978 | > 20000 | 0.979 | > 500 | 0.92 | > 2000 | 0.983 | > 5000
697 (lymphoblastic leukaemia, suspension) | 0.965 | > 8 | 0.987 | > 20000 | 0.987 | > 500 | 0.165 | 16.2 | 0.979 | > 5000
A3-KAW (B-cell lymphoma, suspension) | 0.987 | > 8 | 0.992 | > 20000 | 0.992 | > 500 | 0.943 | > 2000 | 0.992 | > 5000
A4-Fuk (B-cell lymphoma, suspension) | 0.974 | > 8 | 0.986 | > 20000 | 0.984 | > 500 | 0.523 | 145 | 0.901 | > 5000
A253 (head and neck, adherent) | 0.89 | > 8 | 0.986 | > 20000 | 0.988 | > 500 | 0.97 | > 2000 | 0.989 | > 5000
A388 (skin, adherent) | 0.967 | > 8 | 0.976 | > 20000 | 0.981 | > 500 | 0.635 | 313 | 0.974 | > 5000
BC-3 (B-cell lymphoma, suspension) | 0.989 | > 8 | 0.977 | > 20000 |  |  | 0.959 | > 2000 |  | 
D-502MG (glioma, adherent) |  |  | 0.969 | > 20000 | 0.931 | > 500 | 0.977 | > 2000 | 0.952 | > 5000
ES3 (Ewing sarcoma, adherent) | 0.982 | > 8 | 0.964 | > 20000 | 0.983 | > 500 | 0.977 | > 2000 |  | 
EW-12 (Ewing sarcoma, suspension) |  |  |  |  |  |  | 0.977 | > 2000 |  | 
GA-10 (Burkitt lymphoma, suspension) |  |  |  |  | 0.991 | > 500 | 0.225 | 23.4 | 0.99 | > 5000
GCIY (stomach, adherent) | 0.966 | > 8 | 0.981 | > 20000 |  |  | 0.897 | > 2000 | 0.976 | > 5000
HCC-33 (small cell lung carcinoma, adherent) | 0.985 | > 8 | 0.975 | > 20000 |  |  | 0.918 | > 2000 |  | 
HCE-4 (oesophagus, adherent) | 0.992 | > 8 | 0.984 | > 20000 |  |  | 0.799 | 807 |  | 
HEL (acute myeloid leukaemia, semi-adherent) | 0.949 | > 8 | 0.991 | > 20000 | 0.99 | > 500 | 0.9 | 1790 |  | 
Hs-445 (Hodgkin lymphoma, suspension) | 0.989 | > 8 | 0.98 | > 20000 | 0.978 | > 500 | 0.921 | > 2000 |  | 
KALS-1 (glioma, adherent) | 0.953 | > 8 | 0.973 | > 20000 | 0.969 | > 500 | 0.833 | > 2000 |  | 
KELLY (neuroblastoma, adherent) | 0.989 | > 8 | 0.989 | > 20000 | 0.987 | > 500 | 0.956 | > 2000 |  | 
KMS-12-BM (myeloma, suspension) | 0.991 | > 8 | 0.991 | > 20000 |  |  | 0.97 | > 2000 | 0.573 | 476
KP-N-YS (neuroblastoma, adherent) | 0.981 | > 8 | 0.983 | > 20000 |  |  | 0.748 | 728 |  | 

Cell Line | AUC (Bryostatin 1) | IC50 (Bryostatin 1) [nM] | AUC (GW-2580) | IC50 (GW-2580) [nM] | AUC (SGC0946) | IC50 (SGC0946) [nM] | AUC (VX-680) | IC50 (VX-680) [nM] | AUC (Lenalidomide) | IC50 (Lenalidomide) [nM]
LB647-SCLC (small cell lung carcinoma, semi-adherent) | 0.985 | > 8 |  |  | 0.983 | > 500 | 0.481 | 110 | 0.985 | > 5000
LB996-RCC (kidney, adherent) | 0.983 | > 8 | 0.982 | > 20000 | 0.981 | > 500 | 0.943 | > 2000 |  | 
LOXIMVI (melanoma, semi-adherent) | 0.986 | > 8 | 0.987 | > 20000 | 0.988 | > 500 | 0.94 | > 2000 |  | 
MOLM-13 (acute myeloid leukaemia, suspension) | 0.961 | > 8 | 0.985 | > 20000 | 0.977 | > 500 | 0.287 | 32.7 |  | 
MOLT-4 (lymphoblastic leukaemia, suspension) | 0.991 | > 8 | 0.992 | > 20000 | 0.99 | > 500 | 0.359 | 55.3 |  | 
MY-M12 (leukaemia, suspension) | 0.867 | > 8 | 0.669 | 3940 |  |  | 0.415 | 70.7 | 0.977 | > 5000
MZ7-mel (melanoma, adherent) | 0.953 | > 8 | 0.986 | > 20000 | 0.985 | > 500 | 0.91 | > 2000 |  | 
NALM-6 (B-cell leukaemia, suspension) |  |  | 0.991 | > 20000 | 0.982 | > 500 | 0.38 | 62 |  | 
NB6 (neuroblastoma, adherent) | 0.979 | > 8 | 0.984 | > 20000 |  |  | 0.694 | 503 | 0.951 | > 5000
NB7 (neuroblastoma, adherent) | 0.986 | > 8 | 0.959 | > 20000 | 0.921 | > 500 | 0.986 | > 2000 |  | 
NB-4 (acute myeloid leukaemia, suspension) | 0.904 | 7.21 | 0.989 | > 20000 | 0.991 | > 500 | 0.616 | 244 |  | 
NCI-H510A (small cell lung carcinoma, semi-adherent) | 0.99 | > 8 | 0.929 | > 20000 |  |  | 0.622 | 263 | 0.985 | > 5000
NCI-H1355 (lung adenocarcinoma, adherent) | 0.905 | > 8 | 0.974 | > 20000 | 0.961 | > 500 | 0.886 | > 2000 |  | 
NCI-H1963 (small cell lung carcinoma, suspension) | 0.985 | > 8 |  |  |  |  | 0.779 | 707 | 0.991 | > 5000
NEC8 (testis, adherent) | 0.987 | > 8 | 0.978 | > 20000 |  |  | 0.97 | > 2000 | 0.972 | > 5000
OCI-LY-19 (B-cell lymphoma, suspension) | 0.934 | > 8 | 0.936 | > 20000 | 0.987 | > 500 | 0.321 | 41.5 |  | 
RL95-2 (endometrium, adherent) |  |  | 0.978 | > 20000 | 0.986 | > 500 | 0.523 | 145 | 0.987 | > 5000
RS4-11 (leukaemia, suspension) | 0.948 | > 8 | 0.988 | > 20000 | 0.987 | > 500 | 0.303 | 37 |  | 
SIG-M5 (acute myeloid leukaemia, suspension) | 0.718 | 1.72 | 0.972 | > 20000 |  |  | 0.507 | 130 |  | 
SR (lymphoid neoplasm, suspension) | 0.979 | > 8 | 0.964 | > 20000 | 0.977 | > 500 | 0.365 | 55.2 |  | 

Cell Line | AUC (Bryostatin 1) | IC50 (Bryostatin 1) [nM] | AUC (GW-2580) | IC50 (GW-2580) [nM] | AUC (SGC0946) | IC50 (SGC0946) [nM] | AUC (VX-680) | IC50 (VX-680) [nM] | AUC (Lenalidomide) | IC50 (Lenalidomide) [nM]
SU-DHL-8 (B-cell lymphoma, suspension) | 0.791 | 3.32 | 0.988 | > 20000 | 0.982 | > 500 | 0.411 | 72.6 |  | 
SUP-B15 (lymphoblastic leukaemia, suspension) | 0.969 | > 8 | 0.979 | > 20000 |  |  | 0.481 | 111 | 0.971 | > 5000
TC-71 (Ewing sarcoma, adherent) | 0.987 | > 8 | 0.984 | > 20000 | 0.991 | > 500 | 0.983 | > 2000 |  | 
TE-10 (oesophagus, adherent) | 0.987 | > 8 | 0.985 | > 20000 | 0.986 | > 500 | 0.808 | 1010 |  | 
UMC-11 (lung carcinoid, adherent) | 0.987 | > 8 | 0.976 | > 20000 | 0.99 | > 500 |  |  | 0.991 | > 5000
VAL (B-cell lymphoma, suspension) | 0.98 | > 8 | 0.979 | > 20000 | 0.985 | > 500 |  |  | 0.986 | > 5000
VCaP (prostate, adherent) | 0.926 | > 8 | 0.987 | > 20000 | 0.972 | > 500 | 0.935 | > 2000 |  | 
VMRC-MELG (melanoma, adherent) | 0.984 | > 8 | 0.982 | > 20000 | 0.986 | > 500 |  |  | 0.987 | > 5000
VMRC-RCZ (kidney, adherent) | 0.966 | > 8 | 0.962 | > 20000 | 0.981 | > 500 |  |  | 0.982 | > 5000
WM35 (melanoma, adherent) | 0.976 | > 8 | 0.985 | > 20000 | 0.985 | > 500 |  |  | 0.977 | > 5000
WM278 (melanoma, adherent) | 0.929 | > 8 | 0.976 | > 20000 | 0.934 | > 500 |  |  | 0.975 | > 5000
WM793B (melanoma, adherent) | 0.887 | > 8 | 0.983 | > 20000 | 0.982 | > 500 |  |  | 0.983 | > 5000
WM1552C (melanoma, adherent) | 0.984 | > 8 | 0.986 | > 20000 | 0.986 | > 500 |  |  | 0.988 | > 5000
WM-115 (melanoma, adherent) | 0.941 | > 8 | 0.963 | > 20000 | 0.962 | > 500 |  |  | 0.916 | > 5000
YAPC (pancreas, adherent) | 0.933 | > 8 | 0.984 | > 20000 | 0.983 | > 500 |  |  | 0.983 | > 5000
YKG-1 (glioma, adherent) | 0.822 | 4.77 | 0.978 | > 20000 | 0.984 | > 500 |  |  | 0.987 | > 5000
YT (lymphoid neoplasm, suspension) | 0.992 | > 8 | 0.981 | > 20000 | 0.992 | > 500 |  |  | 0.97 | > 5000
huH-1 (liver, adherent) | 0.973 | > 8 | 0.951 | > 20000 | 0.98 | > 500 |  |  | 0.984 | > 5000
